This note sets out measurements from the supplement of paper PMC9446081.

The whole screen tested about 39,000 compounds, of which about 220 (0.56%) showed activity. This is one part of the list.
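Further: static incubation at 37 °C against the wild-type strain, values averaged over two biological replicates.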

This assay concerns Escherichia coli K-12 BW25113. As to the kind of experiment: relative growth (OD600 normalised to plate interquartile mean) (fraction); higher = less growth inhibition, active = 0.2 or less. Particulars: 50 µM; LB; incubation time: overnight (16-24 h).
In the case of `C[C@H](CO)N1C[C@H](C)[C@@H](CN(C)C(=O)Nc2ccccc2)OCCCC[C@H](C)Oc2ccc(NC(=O)CCC(F)(F)F)cc2C1=O`, the relative growth was inactive: 1.

Regarding `C[C@H]1CN([C@@H](C)CO)C(=O)c2cccc(NS(=O)(=O)c3ccccc3)c2O[C@@H]1CN(C)S(=O)(=O)c1ccccc1`, the relative growth was inactive: 0.993.

As to `O=C(C[C@H]1C[C@H]2c3cc(NC(=O)C4CCOCC4)ccc3O[C@H]2[C@@H](CO)O1)NCc1cc(F)ccc1F`, the relative growth was inactive: 0.995. The value for `C[C@H]1CN([C@@H](C)CO)C(=O)Cc2cc(NC(=O)Nc3ccc4c(c3)OCO4)ccc2O[C@H]1CN(C)Cc1ccc(C(F)(F)F)cc1` was inactive: 1.03. For the compound `Cc1noc(C)c1NC(=O)N(C)C[C@H]1OCCCC[C@@H](C)Oc2ccc(NC(=O)Nc3cccc4ccccc34)cc2C(=O)N([C@@H](C)CO)C[C@H]1C`, the relative growth is inactive: 0.97.

`C[C@H]1CN([C@@H](C)CO)C(=O)c2cccc(NC(=O)c3nc4ccccc4s3)c2O[C@H]1CN(C)S(=O)(=O)c1cn(C)cn1`: the relative growth is inactive: 0.913. `C[C@H]1CN([C@@H](C)CO)C(=O)c2cc(NC(=O)Cc3cn(C)c4ccccc34)ccc2O[C@H]1CN(C)S(=O)(=O)c1cn(C)cn1`: the relative growth was inactive: 0.99. Turning to `CN(C)CC#Cc1ccc([C@H]2[C@H]3CN(C(=O)CN(C)C)CC(=O)N3[C@H]2CO)cc1`, the relative growth was inactive: 1.02.

Consider `O=C(CCCCC(=O)N/N=C/c1cc(I)cc(I)c1O)NO`, for which the relative growth is inactive: 0.886. On to `C[C@H]1CN([C@@H](C)CO)C(=O)c2cc(NC(=O)CCN3CCOCC3)ccc2O[C@@H]1CN(C)C(=O)Nc1ccc(F)cc1`, for which the relative growth is inactive: 0.99. `C[C@H]1CN([C@@H](C)CO)C(=O)c2cc(NS(=O)(=O)c3cccs3)ccc2O[C@H]1CN(C)Cc1ccc(Cl)c(Cl)c1`: the relative growth was inactive: 0.995. Regarding `OC[C@H]1O[C@@H](S[C@@H]2O[C@H](CO)[C@H](O)[C@H](n3cc(-c4cccc(F)c4)nn3)[C@H]2O)[C@H](O)[C@@H](n2cc(-c3cccc(F)c3)nn2)[C@H]1O`, the relative growth is inactive: 0.949. Regarding `OC[C@H]1O[C@@H]2O[C@H]3[C@H](O)[C@@H](O)[C@@H](O[C@H]4[C@H](O)[C@@H](O)[C@@H](O[C@H]5[C@H](O)[C@@H](O)[C@@H](O[C@H]6[C@H](O)[C@@H](O)[C@@H](O[C@H]7[C@H](O)[C@@H](O)[C@@H](O[C@H]1[C@H](O)[C@H]2O)O[C@@H]7CO)O[C@@H]6CO)O[C@@H]5CO)O[C@@H]4CO)O[C@@H]3CO`, the relative growth is inactive: 1.01. Take `COC(=O)[C@H]1CN(C)CCC1=O`: the relative growth was inactive: 1.01. For `CC(C)(C)OC(=O)N1CC(=O)C1`, the relative growth is inactive: 0.941. Consider `Cc1ccc(S(=O)(=O)N(C)C[C@@H]2Oc3c(NC(=O)Nc4ccc(C(F)(F)F)cc4)cccc3C(=O)N([C@@H](C)CO)C[C@H]2C)cc1`, for which the relative growth was inactive: 0.792.

`O=C(C[C@@H]1C[C@@H]2c3cc(NC(=O)c4ccc5c(c4)OCO5)ccc3O[C@@H]2[C@H](CO)O1)NCc1ccc(Oc2ccccc2)cc1`: the relative growth is inactive: 0.994. Regarding `C[C@H](O)C#Cc1cnc2c(c1)C(=O)N([C@@H](C)CO)C[C@@H](C)[C@H](CN(C)C(=O)Nc1ccc(C(F)(F)F)cc1)O2`, the relative growth is inactive: 0.944. In the case of `C[C@H](CO)N1C[C@H](C)[C@H](CN(C)Cc2ccccc2)OCCCC[C@H](C)Oc2ccc(NC(=O)Nc3cccc4ccccc34)cc2C1=O`, the relative growth is inactive: 1.06. In the case of `C[C@@H]1CN([C@H](C)CO)C(=O)CCCn2cc(nn2)CO[C@H]1CN(C)S(=O)(=O)c1ccc2c(c1)OCCCO2`, the relative growth is inactive: 1.01. Consider `O=C([C@H]1N[C@H]2c3ccc(-c4ccc(F)cc4)c(=O)n3C[C@H]2[C@@H]1CO)N1CCOCC1`, for which the relative growth was inactive: 1.03. Consider `C[C@H](CO)N1C[C@H](C)[C@@H](CN(C)Cc2ccccc2)OCc2ccccc2-c2c(n(C)c3ccccc23)C1=O`, for which the relative growth is inactive: 1.02. As for `C[C@H]1CN([C@@H](C)CO)C(=O)c2cccc(NC(=O)C3CCOCC3)c2O[C@H]1CN(C)C(=O)Nc1ccc2c(c1)OCO2`, the relative growth was inactive: 1.02.

Turning to `C[C@@H]1CN([C@@H](C)CO)S(=O)(=O)c2ccc(C#Cc3ccc(F)cc3)cc2O[C@H]1CN(C)S(C)(=O)=O`, the relative growth is inactive: 1.03. As to `COc1ccc([C@H]([C@@H](O)Cc2ccccc2)N(C[C@H](/C=C/c2ccccc2)NC(=O)C(Cl)(Cl)Cl)[C@@H](Cc2ccccc2)C(OC)OC)cc1`, the relative growth is inactive: 1.03. For the compound `C[C@H](CO)N1C[C@H](C)[C@H](CN(C)S(=O)(=O)c2cn(C)cn2)OCCCC[C@H](C)Oc2ccc(NC(=O)Nc3ccc(C(F)(F)F)cc3)cc2C1=O`, the relative growth is inactive: 1.03. Regarding `C=CC[C@H](CC(=O)N[C@@H](CO)Cc1ccccc1)C(=O)N[C@@H](COC(=O)[C@@H](CC=C)Cc1ccc(F)cc1)Cc1ccccc1`, the relative growth is inactive: 1.02. Take `COc1ccc(S(=O)(=O)Nc2ccc3c(c2)C(=O)N([C@H](C)CO)C[C@H](C)[C@@H](CN(C)S(=O)(=O)c2ccc(C)cc2)O3)cc1`: the relative growth is inactive: 1.03. With `C[C@H]1CN([C@@H](C)CO)S(=O)(=O)c2ccc(C3=CCCC3)cc2O[C@@H]1CN(C)S(=O)(=O)c1cn(C)cn1`, the relative growth is inactive: 0.979.

Take `C[C@H](CO)N1C[C@H](C)[C@H](CN(C)C(=O)c2ccccc2)Oc2cc(C#CC3(O)CCCC3)ccc2S1(=O)=O`: the relative growth was inactive: 0.987. As to `O=C(/C=C/c1ccc(O)c(O)c1)O[C@@H]1C[C@](OC(=O)/C=C/c2ccc(O)c(O)c2)(C(=O)O)C[C@@H](O)[C@H]1O`, the relative growth was inactive: 0.987. The value for `C[C@H](CO)N1C[C@H](C)[C@@H](CN(C)Cc2ccc3c(c2)OCO3)Oc2c(NC(=O)c3ccc(-c4nccs4)cc3)cccc2C1=O` was inactive: 1.03. With `C[C@H](CO)N1C[C@H](C)[C@@H](CN(C)S(=O)(=O)c2cn(C)cn2)Oc2ccc(NC(=O)CCC(F)(F)F)cc2C1=O`, the relative growth was inactive: 1.02. Consider `COc1cccc2c1C(=O)c1c(O)c3c(c(O)c1C2=O)CC(O)(C(=O)CO)CC3OC1CC(N)C(O)C(C)O1` (stereo unspecified), for which the relative growth is inactive: 1.02. For the compound `C[C@H](CO)N1C[C@H](C)[C@H](CN(C)C(=O)Nc2ccc(C(F)(F)F)cc2)OCc2cn(nn2)CCCC1=O`, the relative growth was inactive: 0.954. On to `C[C@@H]1CN([C@H](C)CO)C(=O)Cc2cc(NC(=O)NC3CCCCC3)ccc2O[C@@H]1CN(C)C(=O)Nc1cccc2ccccc12`, for which the relative growth was inactive: 0.984. With `COc1ccc(C#Cc2ccc3c(c2)[C@]2(C(=O)N3)[C@H](C(=O)N3CCN(c4ncccn4)CC3)[C@H]3C(=O)O[C@H](c4ccccc4)[C@H](c4ccccc4)N3[C@@H]2c2ccc(OCCO)cc2)cc1`, the relative growth was inactive: 1.1.

For `CC(=C\c1ccccc1)/C(C)=N/O`, the relative growth is inactive: 0.99. For the compound `NC(Cn1ccc(=O)c(O)c1)C(=O)O` (stereo unspecified), the relative growth is inactive: 0.983. The value for `C[C@@H]1CN([C@@H](C)CO)C(=O)Cc2cc(NS(=O)(=O)c3cccs3)ccc2O[C@@H]1CN(C)S(=O)(=O)c1ccccc1` was inactive: 0.955; that for `O=C(/C=C/c1ccc(O)c(O)c1)O[C@@H]1C[C@](O)(C(=O)O)C[C@@H](O)[C@H]1O` was inactive: 1.01; that for `Cc1noc(C)c1S(=O)(=O)N(C)C[C@@H]1Oc2ccc(NC(=O)Nc3ccc4c(c3)OCO4)cc2CC(=O)N([C@@H](C)CO)C[C@@H]1C` was inactive: 1. Take `C[C@H]1CCCCO[C@H](CN(C)Cc2ccc(C(F)(F)F)cc2)[C@@H](C)CN([C@@H](C)CO)C(=O)c2cc(NS(=O)(=O)c3ccc(F)cc3)ccc2O1`: the relative growth is inactive: 0.972. The value for `CN1C2CCC1CC(OC(c1ccccc1)c1ccccc1)C2.CS(=O)(=O)O` (stereo unspecified) was inactive: 1.03.

As for `COc1ccccc1-c1cnc2c(c1)C(=O)N([C@@H](C)CO)C[C@@H](C)[C@H](CN(C)C(=O)c1cccnc1)O2`, the relative growth is inactive: 1.02. For the compound `C[C@@H]1CCCCO[C@@H](CN(C)C(=O)Nc2ccccc2)[C@H](C)CN([C@@H](C)CO)C(=O)c2cc(NC(=O)c3ccccc3)ccc2O1`, the relative growth is inactive: 0.966. Regarding `C[C@@H]1CCCCO[C@@H](CN(C)C(=O)Nc2cccc3ccccc23)[C@H](C)CN([C@@H](C)CO)C(=O)c2cc(NC(=O)C3CCCCC3)ccc2O1`, the relative growth is inactive: 1.02. As to `C[C@H](CO)N1C[C@H](C)[C@@H](CN(C)Cc2ccncc2)OCCCC[C@H](C)Oc2ccc(NC(=O)Nc3ccc(C(F)(F)F)cc3)cc2C1=O`, the relative growth is inactive: 1.01. Turning to `C[C@@H](O)C#Cc1cnc2c(c1)C(=O)N([C@@H](C)CO)C[C@H](C)[C@@H](CN(C)Cc1cncnc1)O2`, the relative growth is inactive: 1.01. With `C[C@@H]1CN([C@H](C)CO)C(=O)c2cc(NC(=O)Nc3ccc4c(c3)OCO4)ccc2O[C@@H](C)CCCCO[C@H]1CN(C)S(=O)(=O)c1ccc(Cl)cc1`, the relative growth is inactive: 1.04. The value for `NNC(=O)[C@@H](N)Cc1ccccc1` was inactive: 1. For the compound `Cc1noc(C)c1S(=O)(=O)Nc1ccc2c(c1)C(=O)N([C@@H](C)CO)C[C@H](C)[C@@H](CN(C)C)OCCCC[C@@H](C)O2`, the relative growth was inactive: 0.994. For `CS(=O)(=O)Nc1ccc2c(c1)[C@@H]1C[C@H](CC(=O)NCC3CC3)O[C@H](CO)[C@@H]1O2`, the relative growth was inactive: 1.01.

As to `CC(C)NC(=O)Nc1cccc2c1O[C@H](CN(C)Cc1ccc(Oc3ccccc3)cc1)[C@H](C)CN([C@@H](C)CO)C2=O`, the relative growth is inactive: 0.985. For the compound `c1cnc2c(SCc3nc4ccccc4s3)cccc2c1`, the relative growth was inactive: 0.997.

`C[C@@H]1CCCCO[C@H](CN(C)C(=O)c2ccccc2)[C@H](C)CN([C@@H](C)CO)C(=O)c2cc(NC(=O)Nc3cccc4ccccc34)ccc2O1`: the relative growth was inactive: 1.04.
